For 83 variants, self-cleavage results are on record in the RNAGym collection of RNA variant scans (doi:10.1093/nar/gkz1192).

Read counts are not given, so values of variants with three or more changes are uncertain.

B1: CPEB3 Ribozyme (parent)
chain: UAACAGGGGGCCACAGCAGAAGCGUUCACGUCGCAGCCCCUGUCAGAUUCUGGUGAAUCUGCGAAUUCUGCUGUAUAUCUC

Variants of B1 are the subject of the data set. The data set can be described thus: self-cleavage, relative activity (ratio to wild type); higher = more cleavage; in vitro, sequencing. In outline: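 Relative activity was defined as the cleaved/total read fraction for a variant divided by the same fraction for the unmutated ribozyme. CPEB3 self-cleaving ribozyme libraries were made by rounds of error-prone PCR, barcoded, and transcribed in vitro with T7 RNA polymerase for 5 hours at 37°C, and cleavage ran through transcription plus a 15 min DNase I step before EDTA. Illumina sequencing of template-switched reverse transcripts gave the reads, and DNA sequencing mapped the barcodes. Averages come from three batches, using variants with at least 5 reads.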
A5U U31C G36U U60A: the self-cleavage came to 0.11. For G6A C12U A13G C23U U49A A77U U78A, the self-cleavage was 0.04. With G6A C11U U25G U54C, the self-cleavage was determined as 0.05.

In the case of A5U U31C U51G, the self-cleavage amounted to 0.58.

For the variant A5U U43C A45G A47G, the self-cleavage was found to be 0.25. For G6A U25C U41A C44U G61A U67C, the self-cleavage was found to be 0.05. With G6A G10C A15G A18U A56U U69C the figure was 0.05; with G6A A20U G33A U51C A65U U67A, 0.04.

With A5U U78C U80C, the self-cleavage was 0.77.

In the case of G6A A21U C23U A28U C71U A77G, the self-cleavage worked out at 0.04. As to G6A U25C U26A G30C C37U A56U, the self-cleavage came out at 0.07.

In the case of A5U U60C G63A A65G U72A U76C, the self-cleavage was determined as 0.26. Consider G6A U41A A45G A47G U72C U80C, for which the self-cleavage was 0.05.

As to G6A U26C U31C U43C U49C U51A U72C, the self-cleavage came out at 0.08. For G6A A35U U41A U43C U69A, the self-cleavage amounted to 0.05. As for G6A A20G A35C G36A U41C U49A U69A, the self-cleavage was found to be 0.06. For G6A A13G A15G U26C U76C, the self-cleavage came to 0.31.

Regarding G6A G16U A18U A21G U51C A77C, the self-cleavage was determined as 0.04. For G6A A47G U67C U72C C81A, the self-cleavage is 0.04. As to G6A G10A G19A G46A U51G U74C, the self-cleavage turned out to be 0.04. For A5U U31C A47U U51A U66C U72C, the self-cleavage was 0.07. Turning to G6A A45U A56G A57G, the self-cleavage is 0.08.

Regarding G6A A13G A15U, the self-cleavage turned out to be 0.13.

For G6A U41C A45G U48A, the self-cleavage was 0.31.

Turning to G6A A15G C38A A45G U72C, the self-cleavage turned out to be 0.11. For G6A G36C U41A A45G G55A U69C the value was 0.18; for G6A A18G U41A U49C, 0.07.

Take G6A U26G U60A U67C G70A: the self-cleavage was found to be 0.17.

For G6A A18G U31C G52A C62A U69C, the self-cleavage is 0.05. As to G6A A18G A28U A56G A65G U66C U80A, the self-cleavage is 0.02.

For G6A G9A A45G U78C, the self-cleavage was found to be 0.05. Turning to G6A U25C A28C, the self-cleavage came out at 0.1. In the case of G6A A28G A64G A65U G73A, the self-cleavage came to 0.26.

In the case of G6A G16U U25C C34A U43C U69A, the self-cleavage stood at 0.04. In the case of A5U U51A U78C, the self-cleavage was 0.73. For G6A A47U U78C the value was 0.07; for G6A A15G A20G, 0.09; for A5U U41C A45G U60C, 0.85. As to G6A A20C U31A, the self-cleavage was 0.09. Turning to G6A U26C U43C A75G U78C, the self-cleavage was 0.08. As for G6A G24U A56G, the self-cleavage stood at 0.12.

For G6A U25G C38A U72A, the self-cleavage turned out to be 0.15. As to G6A G24A C27A U49C, the self-cleavage worked out at 0.25. For G6A A13G A47G C59G the value was 0.06; for G6A U25G G52U U78A, 0.05; for G6A A56G G61A U72A, 0.08.

With G6A U25C U31A A47G C50A U60C, the self-cleavage is 0.05.

With G6A A15G U26G U41A U49A U80C, the self-cleavage turned out to be 0.03. Consider G6A G10A C23G, for which the self-cleavage is 0.08.

For G6A A21G C40A U48C U51C, the self-cleavage amounted to 0.66. As for G6A G7A A18G A28G A57G, the self-cleavage was 0.07. Regarding G6A A28G U76C U80C, the self-cleavage was 0.37.

Take G6A U41C U66C U67C: the self-cleavage is 0.18.

In the case of A5U U31A A45U A47G U54C U69A, the self-cleavage was 0.17. As to G6A A20G U66C U76G, the self-cleavage stood at 0.16. G6A U26C U43C A47U G53U U54C U80A: the self-cleavage came out at 0.19. For G6A G33A A75U the value was 0.29; for G6A U25A U69G, 0.06. As for G6A A15G U72A U74C, the self-cleavage worked out at 0.45. For the variant G6A C11U A15G A20G A28G, the self-cleavage is 0.07. Regarding G6A G8U C12U C40A C50U U76G, the self-cleavage was 0.04. As for G6A A20G U51C A64G U72A, the self-cleavage was found to be 0.14. Turning to G6A G9A G10C U31C U54A, the self-cleavage was found to be 0.07. For the variant G6A A35G U41A U49A U69C, the self-cleavage was determined as 0.07. For G6A G10A C23A A64G U69A U72C U80C the value was 0.04; for G6A U26C G61A U67C, 0.11; for G6A A13U A21G U25C U41C U60C, 0.07. On to G6A G7A A20C G24A A65G U72A, for which the self-cleavage worked out at 0.05. On to G6A G53C U60A, for which the self-cleavage came to 0.21. With A5U U49A U58C A64U U66A U78C the figure was 0.1. For A5U U43A A64G, the self-cleavage is 1.12. On to G6A U48C U60C, for which the self-cleavage turned out to be 0.19. G6A G9U A15G G33U U49C U54C U60G: the self-cleavage came out at 0.06. Consider G6A C12U A28G A77U, for which the self-cleavage was 0.09. Regarding A5U U48C G53U U69A G73A, the self-cleavage was determined as 0.51. For G6A A28G G46U A56C, the self-cleavage is 0.12. G6A G9A A13U C34G U66C: the self-cleavage was 0.06. A5U U54A U78A: the self-cleavage came out at 1. With G6A A13C U67C the figure was 0.29. As for A5U U41C A47G A57G U69C, the self-cleavage worked out at 0.17.

Consider G6A G7A A20G C23U A35G A47U U67C, for which the self-cleavage stood at 0.07. Take G6A G36C A45U: the self-cleavage was 0.28.

Take G6A C11G U31A A45G U58C U66C U72G: the self-cleavage is 0.07.
